{
  "source": "PubChem BioAssay AID1508642",
  "about": "(National Center for Advancing Translational Sciences (NCATS), 2021)",
  "note": "About 200 (0.47%) of roughly 43,000 compounds were called active. Inconclusive results (about 12%) are left out. Calls follow the shape of the dose curve; as a rule, active = well fitted cell-killing curve with a large enough effect; inconclusive = small, poorly fitted or top-dose-only effect, or effect the other way; inactive = flat fitted curve, though single readings scatter. Some of the results follow. % is scaled to controls: 0 for no effect and ±100 for the full control effect.",
  "data": [
    {"experiment": "Cell viability qHTS assay in S16 Pmp22-F2sN cells; also: nearly all actives have a fitted effect of over 65% in size", "conditions": "S16 Pmp22-F2sN Schwann cells (luciferase reporters placed in the Pmp22 gene) viability, CellTiter-Glo, 24 h; series mostly up to 57.5 µM; activity change, negative = cytotoxicity: at the top concentration", "summary_of_the_method": "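S16 Schwann cells carrying the Pmp22-F2sN reporter, seeded in 1536-well format, were exposed to library compounds for 24 h at 37C. Viability was read as CellTiter-Glo luminescence after 15 min at room temperature.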", "values": [
      {"compound": "O=c1oc2ccccc2c(N2CCN(c3ccc(F)cc3)CC2)c1CN1CCCC1", "activity change, negative = cytotoxicity": "inactive: -0.467%"},
      {"compound": "Cc1cccc(N2CCN(S(=O)(=O)c3cc(C(=O)Nc4ccc(Oc5ccccc5)cc4)ccc3F)CC2)c1C", "activity change, negative = cytotoxicity": "inactive: -23.6%"},
      {"compound": "O=C(Cn1ncc2c([nH]c3ccccc32)c1=O)NCCCN1CCN(c2ccccc2)CC1", "activity change, negative = cytotoxicity": "inactive: 8.45%"},
      {"compound": "Cc1ccc(CNC(=O)Cc2csc3ccccc23)cc1", "activity change, negative = cytotoxicity": "inactive: -9.61%"},
      {"compound": "Cc1c(Cl)cccc1-n1ncc(C(=O)NC2CCCCC2)c1C1CCN(C(=O)OC(C)(C)C)CC1", "activity change, negative = cytotoxicity": "inactive: 4.21%"},
      {"compound": "CCOC(=O)c1cccc(NC(=O)c2oc3c(c2C)-c2nn(CC)cc2CC3)c1", "activity change, negative = cytotoxicity": "inactive: -21.8%"},
      {"compound": "CCOc1ccc(CCNC(=O)CSc2nnnn2-c2ccccc2)cc1OCC", "activity change, negative = cytotoxicity": "inactive: 0.298%"},
      {"compound": "COc1ccc(Br)cc1[C@@H]1Nc2ccc(C(=O)O)cc2[C@@H]2C=CC[C@@H]21", "activity change, negative = cytotoxicity": "inactive: 10.3%"},
      {"compound": "CCc1nn2c(=O)cc(COC(=O)c3ccccc3NC(=O)COc3ccc(C)c(C)c3)nc2s1", "activity change, negative = cytotoxicity": "inactive: -8.33%"},
      {"compound": "Cc1oc(-c2ccccc2F)nc1CN1CCC(C(=O)NCCc2ccccc2)CC1", "activity change, negative = cytotoxicity": "inactive: 1.31%"},
      {"compound": "CC(C(=O)Nc1ccc(OC(F)(F)F)cc1)N1Cc2ccccc2C1=O", "note": "(stereo unspecified)", "activity change, negative = cytotoxicity": "inactive: -20.5%"},
      {"compound": "CCCCn1cc(S(=O)(=O)c2cc(C)ccc2C)c(=O)c2cc(F)c(F)cc21", "activity change, negative = cytotoxicity": "inactive: 0.98%"},
      {"compound": "COc1cccc(C(=O)N2c3ncnn3C3(CCCCC3)[C@@H]3CCCC[C@@H]32)c1", "activity change, negative = cytotoxicity": "inactive: -16.4%"},
      {"compound": "Cn1ncc2c(N3CCN(c4ccccc4F)CC3)ncnc21", "activity change, negative = cytotoxicity": "inactive: -16.8%"},
      {"compound": "CCOc1ccc(/C=C/c2nc(C#N)c(NC(C)c3ccccc3)o2)cc1", "note": "(stereo unspecified)", "activity change, negative = cytotoxicity": "inactive: 0.0145%"},
      {"compound": "COc1ccc(C)cc1NC(=O)Nc1cccc(OCc2cc(=O)n3ccc(C)cc3n2)c1", "activity change, negative = cytotoxicity": "inactive: 17%"},
      {"compound": "Cc1ccccc1OCC(=O)NCC(c1ccc(Cl)cc1)N1CCCCC1", "note": "(stereo unspecified)", "activity change, negative = cytotoxicity": "inactive: 5.05%"},
      {"compound": "CC(=O)N1CCc2cc(Br)cc(S(=O)(=O)N3CCC(C(=O)Nc4ccc(C(C)C)cc4)CC3)c21", "activity change, negative = cytotoxicity": "inactive: -2.71%"},
      {"compound": "CCOC(=O)c1ccc(-n2c(CCC(=O)O)ccc2-c2ccccc2)cc1", "activity change, negative = cytotoxicity": "inactive: 6.37%"},
      {"compound": "CN(Cc1ccccc1)S(=O)(=O)c1ccc(NC(=O)c2cc(=O)c3ccccc3o2)cc1", "activity change, negative = cytotoxicity": "inactive: -50.4%"},
      {"compound": "CCc1cccc(C)c1NC(=O)CN1C(=O)C2(SCC(=O)N2c2cccc(F)c2)c2ccccc21", "note": "(stereo unspecified)", "activity change, negative = cytotoxicity": "inactive: -21.9%"},
      {"compound": "CCOC(=O)c1c(S(=O)(=O)N2CCCC(C(=O)NCc3cccc(C)c3)C2)c(C)n(C)c1C", "note": "(stereo unspecified)", "activity change, negative = cytotoxicity": "inactive: 11.2%"},
      {"compound": "COCCN(Cc1ccco1)C(=O)c1cc2c(=O)[nH]c3ccc(C)cc3c2s1", "activity change, negative = cytotoxicity": "inactive: 7.92%"},
      {"compound": "NC1=NC(c2cccc(Cl)c2)n2c(nc3ccccc32)N1", "note": "(stereo unspecified)", "activity change, negative = cytotoxicity": "inactive: -7.83%"},
      {"compound": "CCCS(=O)(=O)Nc1cccc(-c2cn3ccc(C)cc3n2)c1", "activity change, negative = cytotoxicity": "inactive: -5.18%"},
      {"compound": "CCOc1ccc2c(c1)c(=O)c(S(=O)(=O)c1ccc(F)cc1)cn2CC(=O)Nc1ccccc1C", "activity change, negative = cytotoxicity": "inactive: 6.87%"},
      {"compound": "COc1ccc(CCNC(=O)c2cccc(Nc3nc4ccccc4nc3-n3nc(C)cc3C)c2)cc1OC", "activity change, negative = cytotoxicity": "inactive: 0.321%"},
      {"compound": "O=C(CSc1n[nH]c(-c2ccc(F)cc2)n1)NCc1ccccc1Cl", "activity change, negative = cytotoxicity": "inactive: -3.35%"},
      {"compound": "COc1ccc(C)cc1NS(=O)(=O)c1c(C(=O)N2CCC(C)CC2)c(C)n(C)c1C", "activity change, negative = cytotoxicity": "inactive: -0.966%"},
      {"compound": "COC(=O)c1ccc(NC(=O)CCCC(=O)OCC(=O)c2ccc(Cl)cc2)cc1", "activity change, negative = cytotoxicity": "inactive: 7.67%"},
      {"compound": "O=C(COc1ccccc1)NCC(c1ccc(Cl)cc1)N1CCOCC1", "note": "(stereo unspecified)", "activity change, negative = cytotoxicity": "inactive: 1.09%"},
      {"compound": "Cc1ccc(-c2noc(-c3ccc(N4CCN(C)CC4)c([N+](=O)[O-])c3)n2)cc1", "activity change, negative = cytotoxicity": "inactive: 1.31%"},
      {"compound": "CC(C)c1nn2c(=O)cc(COC(=O)c3cccs3)nc2s1", "activity change, negative = cytotoxicity": "inactive: -17.8%"},
      {"compound": "Cc1nc2cccnc2n1-c1cccc(C(=O)NCCN(C)C)c1", "activity change, negative = cytotoxicity": "inactive: -0.824%"},
      {"compound": "CC(=O)Nc1ccc2nc3c(=O)n(C)c(=O)n(C)c3nc2c1C", "activity change, negative = cytotoxicity": "inactive: 1.23%"},
      {"compound": "COc1ccccc1CNC(=O)C(C)n1c(=O)cc(-c2ccccc2)c2c(C)nn(C)c21", "note": "(stereo unspecified)", "activity change, negative = cytotoxicity": "inactive: -3.22%"},
      {"compound": "Cc1cccc(OC(=O)c2cc(-c3ccc(C)c(C)c3)on2)c1", "activity change, negative = cytotoxicity": "inactive: 12.9%"},
      {"compound": "O=C1CCSC2(C(=O)N(Cc3ccc(F)cc3)c3ccccc32)N1c1ccc(Cl)cc1", "note": "(stereo unspecified)", "activity change, negative = cytotoxicity": "inactive: 27.5%"},
      {"compound": "COc1ccc(Cl)cc1NC(=O)N1CCN(Cc2cc(=O)n3nc(-c4ccccc4)sc3n2)CC1", "activity change, negative = cytotoxicity": "inactive: -1.82%"},
      {"compound": "N#Cc1nc(-c2ccc(COc3ccccc3)o2)oc1N1CCN(c2ccccc2)CC1", "activity change, negative = cytotoxicity": "inactive: 1.72%"},
      {"compound": "CCc1ccc(CNC(=O)c2cnc3sc(N4CCOCC4)nn3c2=O)cc1", "activity change, negative = cytotoxicity": "inactive: 15.2%"},
      {"compound": "Cc1oc(-c2ccc(C(=O)NCc3ccc(F)cc3)cc2)nc1CS(=O)c1ccccc1", "note": "(stereo unspecified)", "activity change, negative = cytotoxicity": "inactive: -28.3%"},
      {"compound": "CCOc1ccc(/C=C/c2nc(C#N)c(NC3CCCCC3)o2)cc1", "activity change, negative = cytotoxicity": "inactive: 6.56%"},
      {"compound": "CCN(CC)CCNC(=O)c1ccc(-c2nc(CS(=O)(=O)c3ccc(C)cc3)c(C)o2)cc1", "activity change, negative = cytotoxicity": "inactive: -16.2%"},
      {"compound": "CC(C)c1ccc(NC(c2nnc(-c3ccccc3)o2)c2ccc(F)cc2Cl)cc1", "note": "(stereo unspecified)", "activity change, negative = cytotoxicity": "inactive: -0.489%"},
      {"compound": "COc1ccccc1-c1nnc(SCC(N)=O)o1", "activity change, negative = cytotoxicity": "inactive: 5.83%"},
      {"compound": "CC(=O)c1cc2c(cc1N/C(=N/S(=O)(=O)c1ccccc1)c1ccc(Cl)cc1)OCO2", "activity change, negative = cytotoxicity": "inactive: 0.93%"},
      {"compound": "Cc1cc(C)cc(C(=O)Nc2c(C(=O)Nc3ccccc3F)oc3ccccc23)c1", "activity change, negative = cytotoxicity": "inactive: 0.0141%"},
      {"compound": "CC(=O)c1cc(-c2ccccc2)n(CCC(=O)Nc2ccc(C(C)C)cc2)c1C", "activity change, negative = cytotoxicity": "inactive: -4.38%"},
      {"compound": "COc1ccc(-c2cc(C(F)(F)F)n3nc(C(=O)O)c(Cl)c3n2)cc1OC", "activity change, negative = cytotoxicity": "inactive: 0.739%"},
      {"compound": "CCOc1ccc(NC(=O)Cn2cc(C(=O)c3ccc(F)cc3)c(=O)c3cc4c(cc32)OCCO4)cc1", "activity change, negative = cytotoxicity": "inactive: 3.55%"},
      {"compound": "CC(C)(C)OC(=O)N1CCC(c2c(C(=O)NCCN3CCCC3)cnn2-c2ccc(Cl)cc2)CC1", "activity change, negative = cytotoxicity": "inactive: -1.68%"},
      {"compound": "COc1ccc(NC(=O)Cn2cnc3ccc(S(=O)(=O)N4CCC(C)CC4)cc3c2=O)cc1Cl", "activity change, negative = cytotoxicity": "inactive: 21.9%"},
      {"compound": "Cc1ccc(-n2ccnc(NCCc3ccc(S(N)(=O)=O)cc3)c2=O)c(C)c1", "activity change, negative = cytotoxicity": "inactive: -21.1%"},
      {"compound": "Cc1cccc(OCC(=O)Nc2ccc3nc(Nc4cccc(C(F)(F)F)c4)cc(C)c3c2)c1", "activity change, negative = cytotoxicity": "inactive: 28.2%"},
      {"compound": "Cc1ccc(CNC(=O)c2oc3ccc(S(=O)(=O)N4CCC(C)CC4)cc3c2C)cc1", "activity change, negative = cytotoxicity": "inactive: -4.41%"},
      {"compound": "COc1ccccc1CNC(=O)c1ccc2c(c1)N(Cc1cc(C)ccc1C)C(=O)c1ccccc1S2", "activity change, negative = cytotoxicity": "inactive: -2.94%"},
      {"compound": "CCCCNC(=O)c1cc2c(=O)n3cccc(C)c3nc2s1", "activity change, negative = cytotoxicity": "inactive: 17.3%"},
      {"compound": "CC(=O)OCc1cnc(C)c2oc(=O)c(C(=O)Nc3ccc(C)cc3Cl)cc12", "activity change, negative = cytotoxicity": "inactive: -0.733%"},
      {"compound": "CC1CCC(Nc2ncnc3onc(-c4ccc(Cl)cc4)c23)CC1", "note": "(stereo unspecified)", "activity change, negative = cytotoxicity": "inactive: -1.35%"},
      {"compound": "COc1ccc(-c2coc3c2c(C)cc2oc(=O)c(C)c(C)c23)cc1", "activity change, negative = cytotoxicity": "inactive: 1.15%"}
    ]}
  ]
}
